About 220 (0.56%) of roughly 39,000 compounds showed activity. Some of the results follow.
Tested on: Escherichia coli K-12 BW25113
Assay: relative growth (OD600 normalised to plate interquartile mean) (fraction); higher = less growth inhibition, active = 0.2 or less
Settings: 50 µM; LB; incubation time: overnight (16-24 h)
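Note: static incubation at 37 °C against the wild-type strain, values averaged over two biological replicates.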

Row | SMILES | relative growth
1 | C[C@H](CO)N1C[C@H](C)[C@@H](CN(C)S(C)(=O)=O)Oc2ccc(NS(=O)(=O)c3cn(C)cn3)cc2C1=O | inactive: 0.976
2 | O=C1C(CCS(=O)c2ccccc2)C(=O)N(c2ccccc2)N1c1ccccc1 (stereo unspecified) | inactive: 1.09
3 | COc1ccc(S(=O)(=O)N(C)C[C@H]2Oc3ccc(NC(=O)Cn4cnnn4)cc3C(=O)N([C@@H](C)CO)C[C@H]2C)cc1 | inactive: 0.985
4 | O=C1N[C@H](Cc2c[nH]c3ccccc23)COC(=O)[C@@H](Cc2ccc(F)cc2)CCC=CC[C@H]1CC(=O)N(CCO)Cc1ccccc1 | inactive: 1.03
5 | CC(C)NC(=O)Nc1ccc2c(c1)C(=O)N([C@H](C)CO)C[C@H](C)[C@@H](CN(C)Cc1ccccc1)OCCCC[C@@H](C)O2 | inactive: 0.999
6 | C[C@H](CO)N1C[C@H](C)[C@H](CN(C)Cc2ccc(C(=O)O)cc2)Oc2ccc(NC(=O)C3CC3)cc2C1=O | inactive: 1
7 | O=C1N[C@H]2[C@@H]1[C@@H]1C=C[C@H]2C1 | inactive: 1
8 | COc1cc2c(cc1OC)CN(C(=O)[C@@H]1[C@H]3C(=O)O[C@H](c4ccccc4)[C@H](c4ccccc4)N3[C@H](c3ccc(O)cc3)[C@@]13C(=O)Nc1ccccc13)CC2 | inactive: 1.03
9 | C[C@@H]1CCCCO[C@@H](CN(C)C(=O)Nc2cccc3ccccc23)[C@@H](C)CN([C@H](C)CO)C(=O)c2cc(NC(=O)CCC(F)(F)F)ccc2O1 | inactive: 1.01
10 | C[C@H](CO)N1C[C@H](C)[C@@H](CN(C)S(=O)(=O)c2ccc(F)cc2)OCCCC[C@H](C)Oc2ccc(NC(=O)Nc3ccc(F)cc3)cc2C1=O | inactive: 1.03
11 | C[C@@H]1CCCCO[C@@H](CN(C)Cc2ccc(C(F)(F)F)cc2)[C@H](C)CN([C@@H](C)CO)C(=O)c2cc(N(C)C)ccc2O1 | inactive: 0.976
12 | NCCCC(O)(P(=O)(O)O)P(=O)(O)O | inactive: 1.01
13 | C[C@H]1CN([C@@H](C)CO)C(=O)Cc2cc(NS(=O)(=O)c3cccs3)ccc2O[C@H]1CN(C)S(=O)(=O)c1ccc(F)cc1 | inactive: 0.978
14 | COc1ccccc1CNC(=O)C[C@H]1C[C@@H]2c3cc(NC(=O)C4CCOCC4)ccc3O[C@@H]2[C@@H](CO)O1 | inactive: 0.974
15 | O=C(NOC[C@H](O)CO)c1cc(Br)c(F)c(F)c1Nc1ccc(I)cc1F | inactive: 1
16 | CC[C@H]1OC(=O)C[C@@H](O)[C@H](C)[C@@H](O[C@@H]2O[C@H](C)C[C@H](N(C)C)[C@H]2O)[C@@H](CC=O)C[C@@H](C)C(=O)/C=C/[C@]2(C)O[C@H]2[C@@H]1C | active: 0.149

Source: the supplement of paper PMC9446081
